We go through 11 compounds from ChEMBL document CHEMBL5303300, “EUbOPEN Chemogenomics Library - Multiplex” (2023).

This data set relates to U2OS. In words: Multiplex assay against U2OS. To be noted: human, number of replicates 2. Format: toxicity, cell-based. The method, boiled down: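 Live cells carried four stains from seeding: Hoechst33342, BioTracker Green Microtubule Cytoskeleton Dye, MitoTracker Red and Annexin V Alexa Fluor 680. They were imaged on a CQ1 microscope at 37°C and 5% CO2 after compound addition. Using CellPathfinder machine-learning gating, cells were split into Hoechst high-intensity objects or normal cells, normal cells into healthy, pyknosed or fragmented nuclei, and pyknosed cells into mitotic or apoptotic; tubulin, mitochondrial-mass and membrane-permeability phenotypes are per cents of healthy-nucleus cells.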

Where [1] appears, read: 12 h, 1 µM, compound concentration 1 uM.
Setting [2] is: 12 h, 10 µM, compound concentration 10 uM.
[3] abbreviates: 24 h, 1 µM, compound concentration 1 uM.
[4] abbreviates: 24 h, 10 µM, compound concentration 10 uM.
The mark [5] stands for this setting: 48 h, 1 µM, compound concentration 1 uM.
[6] abbreviates: 48 h, 10 µM, compound concentration 10 uM.

Some entries of the source have several records that differ or are many. The other results are left out here. An entry can have further records. Values given together repeat one measurement across runs, samples, wells, individuals or studies.

For `C[C@@H](OC[C@@]1(c2ccccc2)CC[C@]2(CCC(=O)N2)CN1)c1cc(C(F)(F)F)cc(C(F)(F)F)c1` [ROLAPITANT], the “Total Cell Count” value by setting is: under setting [1], 34 and 274; under setting [2], 271 and 28; under setting [3], 40 and 386; under setting [4], 374 and 36; under setting [5], 73 and 760; under setting [6], 822 and 52. The “Population Fragmented Nuclei (%)” value under setting [2] was 5% and 21%; the “Population Fragmented Nuclei (%)” value under setting [4] was 2% and 16%. For the same compound, under setting [3], the “Population Mitotic Cells (%)” value was 0% and 47%. Moreover, the “Population Tubulin-Different-Phenotype (%)” value under setting [6] is 90% and 29%.
Take `COc1nc2ccc([C@@](O)(c3ccc(Cl)cc3)c3cncn3C)cc2c(Cl)c1Cc1ccc(-n2cccn2)cc1` [JNJ-53721590]: under setting [1], the “Population Apoptotic (%)” value is 20% and 82%; the “Population Fragmented Nuclei (%)” value was 26% and 3%; the “Population Mitotic Cells (%)” value is 80% and 17%; the “Total Cell Count” value was 30 and 157. The “Total Cell Count” value under setting [2] was 240 and 55. Besides, under setting [3], the “Total Cell Count” value was 35 and 216. Further, under setting [4], the “Population Mitotic Cells (%)” value is 20% and 63%; the “Total Cell Count” value is 265 and 48. In addition, under setting [5], the “Population Fragmented Nuclei (%)” value is 2% and 19%; the “Population Membrane Permeable-Phenotype (%)” value is 2% and 17%; the “Population Tubulin-Different-Phenotype (%)” value is 59% and 13%; the “Total Cell Count” value was 370 and 42. For the same compound, under setting [6], the “Population Fragmented Nuclei (%)” value was 28% and 7%; the “Total Cell Count” value is 70 and 284.
As for `CN[C@@H]1C[C@H]2O[C@@](C)([C@@H]1OC)n1c3ccccc3c3c4c(c5c6ccccc6n2c5c31)C(=O)NC4` [STAUROSPORINE], under setting [2], the “Population Healthy Nuclei (%)” value is on record as 11, 19, 8, 6%. For the same compound, the “Population Membrane Permeable-Phenotype (%)” value under setting [4] is 100, 85, 87, 20%. Moreover, the “Population Fragmented Nuclei (%)” value under setting [6] was 34, 43, 13, 21%.
Turning to `CS(=O)(=O)c1ccc(C(=O)Nc2cccc(COc3ccc(Br)cc3CN[C@H]3CCC[C@@H]3O)c2)c(Cl)c1.O=CO`, the “Total Cell Count” value is 32 and 221 under setting [1]; 214 and 55 under setting [2]; 49 and 268 under setting [3]; 53 and 247 under setting [4]; 65 and 433 under setting [5]; 67 and 303 under setting [6].
For `CS(=O)(=O)c1ccc(NC(=O)c2cccc(COc3ccc(Br)cc3CNCCO)c2)c(Cl)c1.O=CO`, the “Total Cell Count” value is, setting by setting: under setting [1], 42 and 201; under setting [2], 40 and 193; under setting [3], 53 and 271; under setting [4], 51 and 222; under setting [5], 71 and 361; under setting [6], 43 and 253.
Consider `COc1cc(Br)c(S(=O)(=O)Nc2ccc(C(F)(F)F)c(O[C@@H]3CCN(C)C3)c2)cc1OC`, for which the “Population Apoptotic (%)” value under setting [1] is 0% and 53%; the “Population Apoptotic (%)” value under setting [4] was 16% and 51%. For the same compound, the “Total Cell Count” value is 30 and 202 under setting [1]; 31 and 179 under setting [2]; 42 and 263 under setting [3]; 36 and 245 under setting [4]; 89 and 524 under setting [5]; 64 and 521 under setting [6]. Further, the “Population Fragmented Nuclei (%)” value by setting is: under setting [2], 16% and 3%; under setting [5], 15% and 3%.
For the compound `COc1ccc(-c2cc3c(C)nc(N)nc3n([C@H]3CC[C@H](OCCO)CC3)c2=O)cn1` [PF-04691502], the “Population Fragmented Nuclei (%)” value under setting [1] is 36% and 8%. Besides, the “Total Cell Count” value reads like this: under setting [1], 33 and 303; under setting [2], 33 and 157; under setting [3], 36 and 392; under setting [4], 143 and 41; under setting [5], 50 and 414; under setting [6], 36 and 147.
On to `CCN1CCN(Cc2ccc(C(=O)Nc3ccc(C)c(Oc4ccc5c(c4)CC(=O)N5)c3)cc2C(F)(F)F)CC1.Cl.Cl`, for which the “Population Fragmented Nuclei (%)” value under setting [1] was 5% and 16%. Moreover, the “Total Cell Count” value is 176 and 32 under setting [1]; 53 and 250 under setting [2]; 39 and 235 under setting [3]; 62 and 298 under setting [4]; 62 and 415 under setting [5]; 52 and 316 under setting [6].
Turning to `CN(C)[C@H]1CC[C@H](Nc2ncc3ncnc(Nc4ccc(F)c(Cl)c4)c3n2)CC1`, under setting [1], the “Population Apoptotic (%)” value is 0% and 35%. Further, the “Total Cell Count” value runs as follows: under setting [1], 49 and 283; under setting [3], 66 and 349; under setting [4], 172 and 597; under setting [5], 71 and 625; under setting [6], 291 and 956. Besides, the “Population Fragmented Nuclei (%)” value under setting [3] was 46% and 11%; the “Population Fragmented Nuclei (%)” value under setting [5] is 54% and 14%.
Take `CN1CCN(c2ccc(-n3cc(-c4ccncc4OCC4CCNCC4)cn3)cc2)CC1`: the “Population Fragmented Nuclei (%)” value was 34% and 6% under setting [1]; 34% and 10% under setting [2]; 26% and 3% under setting [3]; 37% and 4% under setting [5]; 42% and 9% under setting [6]. Moreover, the “Population Mitotic Cells (%)” value is 0% and 28% under setting [1]; 45% and 13% under setting [5]. Also, the “Total Cell Count” value is 46 and 193 under setting [1]; 59 and 214 under setting [2]; 63 and 280 under setting [3]; 64 and 222 under setting [4]; 108 and 467 under setting [5].
As to `OC(c1ccc(-c2ccc(CN3CCN(Cc4ccncc4)CC3)cc2)c(F)c1)(C(F)(F)F)C(F)(F)F`, under setting [1], the “Population Apoptotic (%)” value was 0% and 71%; the “Population Fragmented Nuclei (%)” value was 71% and 4%; the “Population Healthy Nuclei (%)” value is 14% and 86%; the “Population Membrane Permeable-Phenotype (%)” value was 100% and 2%. Besides, under setting [1], the “Population Mitotic Cells (%)” value is 100% and 28%; the “Total Cell Count” value was 7 and 223. For the same compound, under setting [2], the “Population Fragmented Nuclei (%)” value was 5% and 32%; the “Population Membrane Permeable-Phenotype (%)” value is 1% and 21%; the “Population Tubulin-Different-Phenotype (%)” value was 53% and 14%; the “Total Cell Count” value was 160 and 28. Under setting [3], the “Population Apoptotic (%)” value is 0% and 57%; the “Population Fragmented Nuclei (%)” value is 80% and 4%; the “Population Healthy Nuclei (%)” value was 0% and 86%; the “Population Tubulin-Different-Phenotype (%)” value is 0% and 87%. Further, the “Total Cell Count” value under setting [3] was 5 and 302. Under setting [4], the “Population Fragmented Nuclei (%)” value was 5% and 27%; the “Population Membrane Permeable-Phenotype (%)” value is 2% and 20%; the “Total Cell Count” value was 219 and 37. Under setting [5], the “Population Apoptotic (%)” value is 0% and 72%; the “Population Fragmented Nuclei (%)” value is 100% and 3%; the “Population Healthy Nuclei (%)” value was 0% and 90%; the “Population Mitotic Cells (%)” value is 0% and 27%. Further, under setting [5], the “Population Tubulin-Different-Phenotype (%)” value is 0% and 92%; the “Total Cell Count” value is 7 and 603. Under setting [6], the “Population Fragmented Nuclei (%)” value was 4% and 19%; the “Population Tubulin-Different-Phenotype (%)” value was 67% and 20%; the “Total Cell Count” value is 371 and 52.
